Read counts are not given, so values of variants with three or more changes are uncertain.
B1: LINE1-full (parent)
chain: UACGUAGGUGGUUUUCCCCUGAUAGUGCUAAGGGGGCCUGGAAGUUUGGACUGGGCAGAGCUCAACACAGCGUGGCAAAGUGGCUGUGGCUAGACUGCCUCUCUGGAUUCCUCGUCACUCAGCAGGGCAUCUCUGAGAGAAAUGCC

Variants of: B1
Test: self-cleavage, relative activity (ratio to wild type); higher = more cleavage; in vitro, sequencing; the parent is a self-cleaving ribozyme

Row | Variant | self-cleavage
1 | U14C G86A U115A U143A | 0.04
2 | A69G C90U A136G | 0.03
3 | U23G A30G U47A A138U | 0.9
4 | C3U U12C U132A U134C A142C | 1.52
5 | A6G A22G G75A U109C | 0.34
6 | A42G A124U A129G | 1.34
7 | U9C U29A G82U U85G U132C | 0
8 | U13C U87G G97A A121G A138U | 0.13
9 | A43G A64G U85C | 0
10 | U12C A129U A141G | 1.61
11 | A50G G54A A67G A124G | 0
12 | G54A A124G A136C A140G | 0.07
13 | A24U G89A A107G | 0.03
14 | U9A U13C A140G | 0.56
15 | U13A U26C A42G A64U A92G U108A C113A | 0.33
16 | U12C U13A U39A U85C | 0.06
17 | U13C U15C A64G U85C | 0
18 | A6U U52C A79U A107U A141U | 1.76
19 | U13C G35A U102C | 0.93
20 | U14C U20C A59U A79U | 1.11
21 | C3U G4A U15C | 0.35

Row | Variant | self-cleavage
22 | U14A U15A C19U | 0
23 | U26A U52C U73C A141G | 1.23
24 | C18U U46A A57U A124G | 0.04
25 | G35U A57U G97A A140G | 0.08
26 | U20A A22G U119A | 1.23
27 | U1C U14C U109C A121C | 0.61
28 | U12G U20C U85G | 0.5
29 | A30G A50U A92G | 0
30 | U12C A50G U73C | 0
31 | A50G U62C A67C U115A | 0
32 | A22U G27A U29C A79G A140G | 1.93
33 | U39C U45C U132C | 1.65
34 | U39C A43G U81A U85A A136U | 0.09
35 | U20C A59G A64G A65G U109A | 0
36 | A42G C56U U81C U119C | 0.18
37 | U14C U47C A67G U130C | 1.15
38 | U9G A77U U109C A142G | 0
39 | U1C A42G C110A | 1.96
40 | U39A A64G C123A | 0.32
41 | U39C A69G U87A U100C | 0
42 | G7C U9G A78U A129G A136G | 1.06

Row | Variant | self-cleavage
43 | G11A U39A C128G | 1.43
44 | A2C A6G G32C G97A U102C U108C | 0.12
45 | A42G C61U U108C | 0.03
46 | U14C A65G G70C | 0.12
47 | U29G G122C A129U | 0.89
48 | U5C G49U U81C | 0.8
49 | C113A U119C A138G | 1.56
50 | U14C U47C U100C A129G | 1.31
51 | U12A U52C U73A U115A | 1.3
52 | A2G C71A U109C | 0.29
53 | A69G U96C U130C A142G | 0.22
54 | A22G U130C U132C | 1.91
55 | U46C U73C A78G | 0.61
56 | U12C U100G C110U U143A | 2.33
57 | A59G G125C G126A | 0.07
58 | A31G U39C C51U A64G A77U A79G | 0.39
59 | U5C A6U U81A | 1.51
60 | A107U A124U A141G | 1.49
61 | G4C U23C U108C U134A | 1.06
62 | U39C A67G A77G C95U | 0.06
63 | U39C U46A U62C U143C | 0

Row | Variant | self-cleavage
64 | A59U U73A U96C | 0.11
65 | U104C U115C A138U | 0
66 | A31U C84U U112C A117G | 0.07
67 | A65G A69U U119C A136U A140G | 0.07
68 | G83A U119C A129U | 1.45
69 | U5C U14C A50G | 0.85
70 | A31U G44U A59G A77U U100C | 0.2
71 | C19U C37U A64G | 0.13
72 | U108C U115C A138G | 1.97
73 | A64G U81G U96C A129G | 0
74 | U5C U52A A59G A142G | 0
75 | G7U U47C G72A | 0.9
76 | C37A A57G A107C A140G | 2.11
77 | G4U U14C A42G A43U A78G | 0.39
78 | G21A G74A A121G A138G A141C | 0.69
79 | U14C A43G U109A C113A U115C | 1.03
80 | U45A U81A A94G U100C | 0.56
81 | U15G U47A A121U | 0.12
82 | A6G U13C A78G A140G | 0.48
83 | U5C C19U G72U A124G | 0.43
84 | G10A U73A U104A | 1.26

— the RNAGym collection of RNA variant scans (doi:10.7554/elife.90254)
